# ± gives the standard deviation. Only a part is listed here, and it is no random draw.
# System: MIWI (PIWIL1) piRISC loaded with L1MC piRNA (30 nt)
# Experiment: pre-steady-state target cleavage rate (min^-1); MIWI and MILI are mouse PIWI proteins and EfPiwi is from a freshwater sponge; tags in brackets are library labels; higher = faster piRNA-guided slicing of the target
# Details: guide: L1MC piRNA 5'p-UAACUAAAUACUAUGCAAGCUGUAGGUCCU; auxiliary factor: 500 nM mouse GTSF1
# Summary of the method: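 A transcribed, DNA-blocked target RNA library (0.1 nM) and 1 nM active affinity-purified piRISC bearing one synthetic guide were incubated in HEPES–potassium acetate buffer at 33 °C for 0–8 or 0–960 min, either with or without 500 nM GTSF1 partner protein. Uncleaved targets were sequenced, normalised to depth and to weakly complementary targets, and pooled over three trials, with k3 capped at 0.0001 min^-1. The pre-steady-state cleavage rate was derived with a burst-and-steady-state fit.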
row,Sequence,pre-steady-state target cleavage rate
1,UCCUGGAUGAGCUUGCAUAGUAAUUAGAUA,0.136 ± 0.034
2,UCGAGCUACAGCUUGCAUAGUAUUAAGUUA,0.869 ± 0.06
3,ACGACCUACAGGUUGCAUAGUAUUUAGUUA,1.29 ± 0.057
4,UCGACCUACAGCUAUGCAUAGUAUUUAGUUA,1.14 ± 0.067
5,UGGACCUACACCUUGCAUAGUAUUUAGAUA,0.355 ± 0.048
6,UCCACCUACAGCUUGCAUUGUAUUUAGUUA,0.827 ± 0.033
7,UCCUGGAUGAGCUUGGAUAGUAUUUAGUAA,0.557 ± 0.076
8,UCCUGGUACAGCUUGCAUAGUAUAUACUUA,0.0741 ± 0.022
9,UGGACCUACAGCUUGCAUAGUAUUUAUUUA,0.373 ± 0.042
10,UGGACCUAGAGCUUGCAAAGUAUUUAGUUA,1.02 ± 0.057
11,UCCUGGUACAGCUAGCAUACUAUUUAGUUA,0.316 ± 0.051
12,UCCUCCUACAGCUUGCAAUCUAUUUAGUUA,0.178 ± 0.018
13,UCCUGGAUGAGCAUGCAUAGUUUUUAGUUA,0.0446 ± 0.013
14,UCCUGGUACAGCUUCGCAUAGUAUUUAGUUA,0.686 ± 0.046
15,UCCUGGAUCAGCUUGCAAUAGUAUUUAGUUA,0.00794 ± 0.0031
16,AGGACGAACAGCUUGCAUAGUAUUUAGUAA,0.848 ± 0.08
17,UCGUCCUAGAGCUUGCAUAGUAUUUAGUUA,0.957 ± 0.041
18,AGGACCUACAGCUUGCGUAGUAUUUAGUUA,1.24 ± 0.077
19,UCCUGCUACAGCUUGCAUAGGAUUUAGUUA,0.0367 ± 0.0089
20,UCCUGGAUGUGCUUGCAAAGUAUAUAGUUA,0.0183 ± 0.0043

row,Sequence,pre-steady-state target cleavage rate
1,UCCUGGAUCAGCUUGGCAUAGUAUUUAGUUA,0.648 ± 0.14
2,AGGUCCUACAGCUAGCAUAGUAUUUAGUUA,0.743 ± 0.025
3,UCCUGGAUGAGCUUGCAUAGUAAAUAGUUA,0.0824 ± 0.013
4,UCCUGGAUCAGCUUGCAUAGUAUUUAAGUUA,0.912 ± 0.046
5,UCCUGGUACUGCUUGGAUAGUAUUUAGUUA,0.391 ± 0.078
6,UCCUGCUACAGCUUGGAUAGUAUUUACUUA,0.0962 ± 0.026
7,AGGACCUACAGCUUGCAUCGUAUUUAGUUA,0.462 ± 0.033
8,UCCUCCUAGUGCUUGCAUAGUAUUUAGUAA,0.221 ± 0.037
9,UCCUGGAUGUGCUUGCAUUGUAUAUAGUUA,0.00712 ± 0.0026
10,UCCUGGAACAGCUUGGUUAGUAUUUAGUAA,0.453 ± 0.057
11,UCCUGGAUCGGCUUGCAUAGUAUUUAGUUA,1.04 ± 0.072
12,UCCGCCUACAGCUUGCAUAGUAUUUAGUUA,1.23 ± 0.05
13,UCCUGCUACAGGUUGCAUAGUAUUUAGUUA,1.03 ± 0.037
14,UCCACCUACAGCUUGCAUAGAAUAUAGUUA,0.275 ± 0.029
15,UCCUCCUACAGCAUGCAUAGUAUUUAGAUA,0.454 ± 0.046
16,UCGACCUACAGCUUGCAUUGUAUUUAGAAA,0.188 ± 0.022
17,UCCUCCUAGAGCUUGCAUAGUAUUUAGAAA,0.194 ± 0.032
18,UCCUGGAACAGCGUUGCAUAGUAUUUAGUUA,0.939 ± 0.055
19,UGGACCUACAGCUAGGAUAGUAUUUAGUUA,1.39 ± 0.068
20,UCCUGCUACAGCUUGCAUAGUAUUUAUGUUA,0.497 ± 0.036

# Same assay, conditions: guide: L1MC piRNA 5'p-UAACUAAAUACUAUGCAAGCUGUAGGUCCU; auxiliary factor: none (no GTSF1)
row,Sequence,pre-steady-state target cleavage rate
1,UCCUGGAUGAGCUUGCAUAGUAAUUAGAUA,0.00679 ± 0.0036
2,UCGAGCUACAGCUUGCAUAGUAUUAAGUUA,0.0216 ± 0.0048
3,ACGACCUACAGGUUGCAUAGUAUUUAGUUA,0.0656 ± 0.012
4,UCGACCUACAGCUAUGCAUAGUAUUUAGUUA,0.0393 ± 0.0097
5,UGGACCUACACCUUGCAUAGUAUUUAGAUA,0.0189 ± 0.005
6,UCCACCUACAGCUUGCAUUGUAUUUAGUUA,0.0247 ± 0.0055
7,UCCUGGAUGAGCUUGGAUAGUAUUUAGUAA,0.0279 ± 0.0083
8,UCCUGGUACAGCUUGCAUAGUAUAUACUUA,0.0042 ± 0.0025
9,UGGACCUACAGCUUGCAUAGUAUUUAUUUA,0.0311 ± 0.0059
10,UGGACCUAGAGCUUGCAAAGUAUUUAGUUA,0.0279 ± 0.0063
11,UCCUGGUACAGCUAGCAUACUAUUUAGUUA,0.0105 ± 0.0027
12,UCCUCCUACAGCUUGCAAUCUAUUUAGUUA,0.00278 ± 0.002
13,UCCUGGAUGAGCAUGCAUAGUUUUUAGUUA,0.0082 ± 0.0022
14,UCCUGGUACAGCUUCGCAUAGUAUUUAGUUA,0.00964 ± 0.0031
15,UCCUGGAUCAGCUUGCAAUAGUAUUUAGUUA,0.00334 ± 0.0026
16,AGGACGAACAGCUUGCAUAGUAUUUAGUAA,0.0516 ± 0.011
17,UCGUCCUAGAGCUUGCAUAGUAUUUAGUUA,0.0436 ± 0.0072
18,AGGACCUACAGCUUGCGUAGUAUUUAGUUA,0.075 ± 0.013
19,UCCUGCUACAGCUUGCAUAGGAUUUAGUUA,0.00691 ± 0.002
20,UCCUGGAUGUGCUUGCAAAGUAUAUAGUUA,0.00652 ± 0.0024

row,Sequence,pre-steady-state target cleavage rate
1,UCCUGGAUCAGCUUGGCAUAGUAUUUAGUUA,0.0104 ± 0.0039
2,AGGUCCUACAGCUAGCAUAGUAUUUAGUUA,0.0611 ± 0.014
3,UCCUGGAUGAGCUUGCAUAGUAAAUAGUUA,0.00476 ± 0.0025
4,UCCUGGAUCAGCUUGCAUAGUAUUUAAGUUA,0.0267 ± 0.0066
5,UCCUGGUACUGCUUGGAUAGUAUUUAGUUA,0.0193 ± 0.0036
6,UCCUGCUACAGCUUGGAUAGUAUUUACUUA,0.00661 ± 0.0023
7,AGGACCUACAGCUUGCAUCGUAUUUAGUUA,0.0314 ± 0.0062
8,UCCUCCUAGUGCUUGCAUAGUAUUUAGUAA,0.0113 ± 0.0017
9,UCCUGGAUGUGCUUGCAUUGUAUAUAGUUA,0.0048 ± 0.0032
10,UCCUGGAACAGCUUGGUUAGUAUUUAGUAA,0.00435 ± 0.0028
11,UCCUGGAUCGGCUUGCAUAGUAUUUAGUUA,0.0337 ± 0.0079
12,UCCGCCUACAGCUUGCAUAGUAUUUAGUUA,0.0714 ± 0.011
13,UCCUGCUACAGGUUGCAUAGUAUUUAGUUA,0.0257 ± 0.0052
14,UCCACCUACAGCUUGCAUAGAAUAUAGUUA,0.0055 ± 0.0021
15,UCCUCCUACAGCAUGCAUAGUAUUUAGAUA,0.00789 ± 0.0023
16,UCGACCUACAGCUUGCAUUGUAUUUAGAAA,0.0036 ± 0.0022
17,UCCUCCUAGAGCUUGCAUAGUAUUUAGAAA,0.00351 ± 0.0022
18,UCCUGGAACAGCGUUGCAUAGUAUUUAGUUA,0.0303 ± 0.0056
19,UGGACCUACAGCUAGGAUAGUAUUUAGUUA,0.00938 ± 0.0019
20,UCCUGCUACAGCUUGCAUAGUAUUUAUGUUA,0.0171 ± 0.003

# From the supplement of paper PMC10338343
